Reference: article PMC4336329 (PLoS ONE, 2015)
Among all 310,000 compounds or so, about 14,000 (4.5%) showed an effect of 50% or more. Effects have a minus sign here. Some of the results follow.

Target: human ether-à-go-go-related gene (hERG) potassium channel (human, UniProt Q12809)
Assay: primary screen, population patch clamp on CHO cells stably expressing hERG
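Note: peak tail current of the secondary pulse compared with the same well before compound.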

human ether-à-go-go-related gene (hERG) potassium channel, sequence (Q12809 whole entry, looked up): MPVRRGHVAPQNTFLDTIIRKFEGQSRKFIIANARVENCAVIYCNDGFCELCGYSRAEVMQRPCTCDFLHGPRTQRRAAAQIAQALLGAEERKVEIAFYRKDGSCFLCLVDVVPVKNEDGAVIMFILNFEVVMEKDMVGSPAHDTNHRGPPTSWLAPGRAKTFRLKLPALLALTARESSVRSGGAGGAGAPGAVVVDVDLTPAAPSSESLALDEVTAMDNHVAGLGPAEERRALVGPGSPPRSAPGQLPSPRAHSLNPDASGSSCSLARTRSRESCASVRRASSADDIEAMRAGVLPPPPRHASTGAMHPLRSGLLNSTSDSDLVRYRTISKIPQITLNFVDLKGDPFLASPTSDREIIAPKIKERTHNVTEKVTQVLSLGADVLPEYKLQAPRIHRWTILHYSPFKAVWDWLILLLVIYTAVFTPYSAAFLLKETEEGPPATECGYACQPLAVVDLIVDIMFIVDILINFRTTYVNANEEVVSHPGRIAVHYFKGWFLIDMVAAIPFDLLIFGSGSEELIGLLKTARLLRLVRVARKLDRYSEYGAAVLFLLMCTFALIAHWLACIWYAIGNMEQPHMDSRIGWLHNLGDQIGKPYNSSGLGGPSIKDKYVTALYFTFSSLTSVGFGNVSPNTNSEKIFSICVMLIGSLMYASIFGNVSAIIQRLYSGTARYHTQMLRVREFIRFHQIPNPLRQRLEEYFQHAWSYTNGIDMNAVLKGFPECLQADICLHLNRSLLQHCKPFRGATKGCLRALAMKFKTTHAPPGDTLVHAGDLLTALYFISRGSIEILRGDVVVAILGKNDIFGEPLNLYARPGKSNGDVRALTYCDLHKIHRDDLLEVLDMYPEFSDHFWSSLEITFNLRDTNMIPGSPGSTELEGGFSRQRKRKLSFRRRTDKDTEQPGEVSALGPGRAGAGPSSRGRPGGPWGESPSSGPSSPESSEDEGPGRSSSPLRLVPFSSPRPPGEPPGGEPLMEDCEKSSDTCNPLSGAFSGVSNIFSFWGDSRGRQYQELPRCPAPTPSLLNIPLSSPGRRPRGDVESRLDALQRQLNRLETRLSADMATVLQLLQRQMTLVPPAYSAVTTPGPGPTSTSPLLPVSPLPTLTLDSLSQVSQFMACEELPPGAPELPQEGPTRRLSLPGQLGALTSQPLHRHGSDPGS

Compound | hERG current change (%, negative = inhibition) at 10uM [%]
O=C1Nc2ccc([N+](=O)[O-])cc2OC1CCN1CCN(c2ccccc2)CC1 (stereo not drawn) | -47.4
CCCCC(=O)Nc1ccc(C(=O)N2CCC(C(=O)OCC)CC2)cc1 | 3.61
CC(=O)c1ccc(NC(=O)CCc2ccc(C)o2)cc1 | -0.137
O=C1c2cccnc2C(=O)N1Cc1ccc(F)cc1 | -7.08
CC(=NCCN1CCCCC1)c1c(O)n(-c2ccccc2)c(=O)[nH]c1=O | 10.9
Cc1cccc(C)c1N1CCN(C(=O)Nc2ccc3c(c2)OCCO3)CC1 | -7.07
CC1=CC(C)(C)N(C(=O)CCl)c2ccccc21 | -39.7
O=C(NC(=S)N1CCCC(C(F)(F)F)C1)c1ccc(F)cc1 (stereo not drawn) | 10.7
COc1ccc(-c2cc(C(F)(F)F)nc(NCc3ccco3)n2)cc1OC | 14.4
CN(C)S(=O)(=O)c1ccc(N2CCCC2)c(C(=O)OCC(=O)NC2(C#N)CCCCC2)c1 | 4.54
CCCNC(=O)C1CCN(c2nc(C)cc(C)n2)CC1 | 0.749
Cc1cc[n+](CCc2ccccc2)cc1C.[Br-] | 18.3
CCOc1ccccc1NC(=O)Nc1ccon1 | 6.44
Cn1c(N)c(C(=O)COC(=O)c2ccc(Br)o2)c(=O)n(C)c1=O | -15.4
CCC(=O)N(NC1=NS(=O)(=O)c2ccccc21)S(=O)(=O)c1ccc(C)cc1 | 15.5
CC(C)CCN1CCNC(=O)C1CC(=O)NCCCN1CCOCC1 (stereo not drawn) | 10.4
N/C(=N\OC(=O)COc1ccc(Cl)cc1)c1cccnc1 | 2.03
CSc1nsc(/C=C/Nc2ccc(C(=O)O)cc2)c1C#N | 4.76
COc1cc2c(c(OC)c1)C(c1ccncc1)CC(=O)N2 (stereo not drawn) | 9.02

Compound | hERG current change (%, negative = inhibition) at 10uM [%]
COc1ccc(CNC(=O)CNC(C)c2ccc(F)cc2)cc1.O=C(O)C(=O)O (stereo not drawn) | 5.06
CN(C)c1ccc(CN(C(=O)/C=C/c2ccccc2Cl)C2CCS(=O)(=O)C2)cc1 (stereo not drawn) | -5.17
Cc1cccc(-n2c(Cc3cc(=O)[nH]c(=O)[nH]3)nnc2SC(C)C)c1 | 16.6
CCC1(CC)C(=O)N(Cc2ccccc2)C(=O)N(Cc2ccccc2)C1=O | 0.244
O=C(Cc1ccccc1)NNC1CC(=O)N(c2ccc(Oc3ccccc3)cc2)C1=O (stereo not drawn) | 6.28
CCn1c2ccccc2c2cc(NC(=O)C3CCN(S(=O)(=O)c4cccs4)CC3)ccc21 | 3.39
C=CC(C)(C)c1cc2cc3ccoc3cc2oc1=O | 0.459
CN(C)S(=O)(=O)c1cccc(C(=O)OCC(=O)NCc2ccc3c(c2)OCO3)c1 | -8.53
C=CC(=O)N1c2ccccc2Sc2ccc(NC(=O)OCC)cc21 | 0.408
CCC(CC)C(=O)Nc1cc(Cl)ccc1C | 2.41
COc1ccc(CN(C)C(=O)c2ccc3c(=O)n4c(nc3c2)CCC4)cc1 | 13.7
CCc1ccc(/C=N/NC(=O)c2nnn(-c3nonc3N)c2CN2CCOCC2)cc1 | -11.6
CC1(C)c2[nH]c3ccccc3c2C[C@H]2C(=O)N(Cc3ccccc3F)C(=O)N21 | 15.7
COc1ccc(NC(=O)CN2CCOCC2)cc1.O=C(O)C(=O)O | 13
O=C(O)CS(=O)(=O)CC(=O)NCc1cccc(C(F)(F)F)c1 | -2.59
CCCCCOc1ccc(N2C(=O)C(C)CNC2=S)cc1 (stereo not drawn) | 5.61
Cc1cc(C)cc(N(CC(=O)NCc2ccco2)S(=O)(=O)c2c(C)noc2C)c1 | -26.3
CSc1nc2ncnc(N)c2[nH]1 | 7.32
Cl.OC(CN1C2=NCCCN2c2ccccc21)c1ccc(Cl)cc1 (stereo not drawn) | -75.9

Compound | hERG current change (%, negative = inhibition) at 10uM [%]
Cc1ccc(C)c(OCc2cc(C(=O)N3CCN(C(=O)c4ccco4)CC3)no2)c1 | -10.7
O=C(NCc1ccccc1C(F)(F)F)C1CC(c2ccccc2[N+](=O)[O-])=NO1 (stereo not drawn) | -29.2
COc1ccc(Cl)cc1C(=O)O/N=C(\N)c1ccncc1 | -7.86
C=CCNC(=O)c1cc(Cl)ccc1[N+](=O)[O-] | 10.3
Cc1cccc(NC(=O)Cn2c(=O)n(Cc3ccccc3)c(=O)c3c(C)c(C)sc32)c1 | -8.78
COCCN(Cc1cn[nH]c1-c1ccc2cc(OC)ccc2c1)C(C)C | -39
COc1ccc(S(=O)(=O)NC(CC(=O)NCc2ccc3c(c2)OCO3)c2ccco2)cc1 (stereo not drawn) | 5.74
CCc1sc(C(=O)NCCCn2ccnc2)cc1Br | -14.5
CC(=O)c1ccc(NC(=O)CCNS(=O)(=O)c2cccc3nonc23)cc1 | 19.8
O=C(NCc1ccncc1)c1ccc(Oc2ccccc2)cc1 | -15.9
Cc1cccc(N(Cc2cc3cc(C)ccc3[nH]c2=O)C(=O)c2cccs2)c1 | 5.95
Cc1cc2cccc(C)c2nc1SCC(=O)NNC(=O)c1ccco1 | 3.66
C#CCOC(=O)c1ccccc1C(=O)O | 7.07
CC(C)(C)N1CC(OC(N)=O)C1 | 21
O=C(c1cccc(N2C(=O)c3ccccc3C2=O)c1)N1CCCCCC1 | 2.21
Cc1ccc(-c2nnn(CC(=O)N(Cc3cccs3)C(C(=O)NC3CCCC3)c3ccco3)n2)o1 (stereo not drawn) | -12
CCn1cnc2sc(C(=O)N(Cc3ccc(N(C)C)cc3)Cc3ccco3)c(C)c2c1=O | -22.2
NC1=NC(=O)C(CC(=O)c2ccc(Cl)cc2)S1 (stereo not drawn) | 1.23
CCOC(=O)C1=C(C)N=c2s/c(=C3/C(=O)Nc4ccccc43)c(=O)n2C1c1ccc(C)cc1 (stereo not drawn) | 14.7
